Out of some 110,000 compounds screened, about 230 (0.21%) showed an effect of 50% or more. This is one part of the list.
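Note: 30 min substrate incubation versus DMSO and 10 µM JCP410 controls.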

For this test, the target named is DPAP1 (Plasmodium falciparum, UniProt Q8IIJ9). The experiment in a line: primary screen, percent inhibition; read by cleavage of a fluorogenic dipeptide substrate; higher = more effect of the substance. The arrangement: species or system P. falciparum D10 trophozoite lysates; single well.
Sequence of DPAP1 (Q8IIJ9 whole entry, looked up): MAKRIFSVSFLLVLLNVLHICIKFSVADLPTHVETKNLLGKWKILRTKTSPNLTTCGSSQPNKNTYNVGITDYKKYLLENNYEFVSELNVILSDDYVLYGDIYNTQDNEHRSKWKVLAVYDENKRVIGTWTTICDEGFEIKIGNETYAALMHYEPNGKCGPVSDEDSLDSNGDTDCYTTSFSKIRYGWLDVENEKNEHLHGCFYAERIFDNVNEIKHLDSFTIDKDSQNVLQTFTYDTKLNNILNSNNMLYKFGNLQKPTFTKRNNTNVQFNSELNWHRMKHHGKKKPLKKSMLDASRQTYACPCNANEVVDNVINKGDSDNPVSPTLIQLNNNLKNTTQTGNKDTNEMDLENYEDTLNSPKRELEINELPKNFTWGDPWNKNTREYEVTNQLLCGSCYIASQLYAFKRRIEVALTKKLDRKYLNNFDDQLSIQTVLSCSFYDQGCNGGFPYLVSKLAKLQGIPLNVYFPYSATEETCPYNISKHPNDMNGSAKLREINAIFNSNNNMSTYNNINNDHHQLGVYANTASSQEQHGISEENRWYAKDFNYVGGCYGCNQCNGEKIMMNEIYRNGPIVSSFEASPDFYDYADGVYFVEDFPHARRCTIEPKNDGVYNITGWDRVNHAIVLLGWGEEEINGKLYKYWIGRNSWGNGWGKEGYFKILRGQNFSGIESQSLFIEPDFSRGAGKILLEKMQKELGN
Turning to `Cc1cc(C)n2nc(CNS(=O)(=O)c3c(F)c(F)c(F)c(F)c3F)nc2n1`, the “% Inhibition @ 10 uM” value is -2.17%.
Turning to `COc1ccccc1C(=O)Nc1cccc(Cl)c1C`, the “% Inhibition @ 10 uM” value worked out at 0.467%.
Take `O=C(c1cc2n(n1)C(C(F)(F)F)CC(c1ccc(Br)cc1)N2)N1CCOCC1` (stereo not shown): the “% Inhibition @ 10 uM” value is -4.12%.
Take `FC(F)(F)c1ccccc1CN1CCN(Cc2ccco2)CC1`: the “% Inhibition @ 10 uM” value was -6.36%.
Regarding `CN1CCN(C(c2ccccn2)c2ccc3cccnc3c2O)CC1` (stereo not shown), the “% Inhibition @ 10 uM” value is -3.33%.
Under `COC(=O)c1sc2nc(-c3cccs3)cc(C(F)(F)F)c2c1N` stands 0.912%.
With `CCCCCc1ccc(CC(=O)O)cc1`, the “% Inhibition @ 10 uM” value is listed as 2.7%.
Under `CCN(CC)C(=O)C1CCN(S(=O)(=O)c2ccccc2)CC1` stands 4.28%; under `COc1cc(OC)cc(-c2cc3nc(C)c(CCC(=O)NCCC4=CCCCC4)c(C)n3n2)c1`, -0.465%.
Under `CCOC(=O)c1c(S(=O)(=O)N2CCC(C)CC2)c(C)n(C)c1C` stands 2.01%; under `COc1ccc(/C=N/OCC(=O)N2CC3(C)CC2CC(C)(C)C3)cc1` (stereo not shown), 3.59%; under `O=C1N/C(=C/c2ccc(Cl)cc2Cl)C(=O)N1c1ccccc1`, -1.63%.
For the compound `CS(=O)(=O)c1ccc2nc(NC(=O)c3cccc(Cl)c3)sc2c1`, the “% Inhibition @ 10 uM” value was determined as 6.19%.
Under `CN(Cc1ccccc1)C(=O)c1ccco1` stands -0.687%.
In the case of `O=S(=O)(c1ccc(Cl)cc1)N(CCCN1CCOCC1)Cc1cccs1`, the “% Inhibition @ 10 uM” value was -4.97%.
Take `c1ccc(OCC2=NN=C(COc3ccccc3)NN2)cc1`: the “% Inhibition @ 10 uM” value is -5.28%.
Consider `CN(C)CCCNC(=O)c1cccc(COc2cccc3ccccc23)c1`, for which the “% Inhibition @ 10 uM” value was -0.478%.
As for `O=S(=O)(NCCc1ccncc1)c1ccc(F)cc1`, the “% Inhibition @ 10 uM” value is listed as 0.13%.
Under `Cn1c2c(c(=O)n(C)c1=O)C(C(F)(F)F)(C(F)(F)F)NC(Cc1ccccc1)=N2` stands -0.132%; under `Cc1ccc(OCC(=O)N(Cc2ccc(C(C)C)cc2)C2CCS(=O)(=O)C2)cc1` (stereo not shown), -1.33%.
Under `CC(C)(C)O[C@H]1CCC[C@H]2CC(=O)CC[C@@]21C` stands 2.51%.
For `CCOc1ccc(N2C(=O)CC(N3CCCC(C)C3)C2=O)cc1` (stereo not shown), the “% Inhibition @ 10 uM” value was 0.138%.
To `COc1ccc(-c2nc3n(n2)C(c2ccc(Cl)cc2)C2=C(O)CCCC2=N3)cc1OC` (stereo not shown) belongs 3.59%.
To `CCc1c(O)nc(SC(C)CC)n(C(C)CC)c1=O` (stereo not shown) belongs -6.12%.
To `CC(C)NC(=O)c1cnn2c1NC(c1cccs1)CC2C(F)(F)F` (stereo not shown) belongs -8.38%; to `CCc1ccc(Cc2cnc(NC(=O)c3cc4ccccc4c(=O)o3)s2)cc1`, 3.54%; to `CCC(C)NC(=O)c1ccc(C2SCC(=O)N2CCc2ccccc2)cc1` (stereo not shown), 1.94%.
`CN1CC[C@@]2(O)CCCC[C@@H]2[C@H]1c1cc([N+](=O)[O-])ccc1O`: the “% Inhibition @ 10 uM” value was -2.32%.
In the case of `Cc1ccccc1OCCCOc1ccccc1/C=C1\NC(=O)NC1=O`, the “% Inhibition @ 10 uM” value is given as -3.75%.
In the case of `Cc1ccc(S(=O)(=O)N2CCN(Cc3noc(CCC(=O)N4CCCC4)n3)CC2)c(C)c1`, the “% Inhibition @ 10 uM” value amounted to 0.00226%.
Turning to `N#C/C(=C/Nc1ccccc1)c1nc(-c2cccc(Br)c2)cs1`, the “% Inhibition @ 10 uM” value turned out to be 0.317%.
To `CC(C)C[C@H](NC(=O)OC(C)c1ccccc1)C(=O)NCC#N` (stereo partly shown) belongs -4.72%; to `Brc1ccc(CNC23CN4CN(CN(C4)C2)C3)cc1`, 2.22%; to `O=C(NCc1ccccc1C(F)(F)F)C1CCN(c2cnccn2)CC1`, 5.54%.
For the compound `Cc1nc2c(c(C)c1CCC(=O)NCC1CCN(CCc3cccs3)CC1)c(=O)n(C)c(=O)n2C`, the “% Inhibition @ 10 uM” value is -1.3%.
For `O=C1NC(c2ccc(C(=O)O)cc2)C(C(=O)c2cccs2)C(O)(C(F)(F)F)N1` (stereo not shown), the “% Inhibition @ 10 uM” value is given as -0.641%.
As for `COc1ccc(Cc2nc3ccccc3n2C(C)C)cc1`, the “% Inhibition @ 10 uM” value is reported as -2.28%.
To `COc1ccc2c3c(ccc2c1)C1CCC(=O)N1CC3` (stereo not shown) belongs 5.42%; to `Cc1ccc(Nc2nc(CC(=O)O)cs2)c(C)c1`, 3.65%.
To `c1coc(CNC2Cc3ccccc3C2)c1` belongs 5.03%; to `Cc1ccc2oc(C(=O)Nc3sc4c(c3C(N)=O)CCCC4)cc(=O)c2c1`, 0.248%.
Under `CC(C)N(Cc1nc(-c2ccc(Cl)cc2)no1)C(=O)N1CCOCC1` stands 0.486%; under `CCCC(=O)NCc1nc2ccccc2[nH]1`, 1.94%; under `CC1CC(=O)C2=C(C1)OC(N)=C(C#N)C2c1cccc(Cl)c1` (stereo not shown), -6.82%.
As for `CCc1ccc2nc(N3CCC(C(=O)NCCN(C)C)CC3)sc2c1`, the “% Inhibition @ 10 uM” value is listed as -5.51%.
To `COc1ccccc1CNC(=O)c1cnc2cc(C)ccn2c1=O` belongs -3.44%; to `CN1CCN(CCC(=O)NCc2ccccc2)CC1`, 2.27%; to `Cc1oc2ccc(O)c(CN(C)Cc3ccccc3)c2c1C(=O)NCc1ccccc1`, 2.14%.
Take `CC1(C)Cc2c(c(N3CCCC3)nc3sc4c(N5CCCC5)ncnc4c23)CO1`: the “% Inhibition @ 10 uM” value worked out at 3.93%.
Consider `COc1cc(C(=O)NC2CCCC(C(F)(F)F)C2)cc(OC)c1OC` (stereo not shown), for which the “% Inhibition @ 10 uM” value is on record as 0.52%.
For `CC(C)OCCCNC(=O)[C@@H](c1ccccc1)N1Cc2ccccc2C1=O`, the “% Inhibition @ 10 uM” value is -0.465%.
With `O=C(NCc1ccc(Cl)cc1)C(=O)NCc1ccc(Cl)cc1`, the “% Inhibition @ 10 uM” value was 1.29%.
On to `CCc1cc2c(=O)n(-c3ccc(Cl)cc3)c(=S)[nH]c2s1`, for which the “% Inhibition @ 10 uM” value turned out to be 21.1%.
Regarding `COc1ccc2[nH]c(C(=O)O)c(NC(C)=O)c2c1`, the “% Inhibition @ 10 uM” value is reported as -3.44%.
Under `CC(=O)N1c2ccccc2N=C2CC(C)(C)CC(O)=C2C1c1ccc(Br)cc1` (stereo not shown) stands 1.02%; under `Cc1ccccc1OCCn1c(C(O)c2ccccc2)nc2ccccc21` (stereo not shown), 2.73%; under `CCN1CCC(Nc2ccc(SC)cc2)CC1`, -5.59%.
`COc1ccc(C2=NS(=O)(=O)N(C)C(C(=O)N3CCN(C(=O)c4ccco4)CC3)=C2)cc1`: the “% Inhibition @ 10 uM” value was -2.84%.
Turning to `COc1ccc(/C=C2\N=C(c3ccc(-c4ccccc4)cc3)OC2=O)c(OC)c1OC`, the “% Inhibition @ 10 uM” value was 2.98%.
To `COc1ccc(/C=C2/NC(=O)N(Cc3ccccc3)C2=O)cc1Cl` belongs 6.68%; to `O=C(Cn1ncc2c3ccccc3nc-2c1O)N(Cc1ccco1)C1CCCCC1`, -4.81%.
Under `CCc1ccc(-n2nnc(-c3nc(-c4ccccc4F)no3)c2N)cc1` stands 4.23%; under `COc1cccc(C2CC(C(F)(F)F)n3ncc(C(=O)NCc4ccc(F)cc4)c3N2)c1` (stereo not shown), 3.35%.
For the compound `CSc1ncc2c(=O)n(Cc3ccccc3)ccc2n1`, the “% Inhibition @ 10 uM” value came out at 4.01%.
